The values below come from the supplement of paper PMC12355420.

Structures are written as SMILES. Counter-ions that a name gives are not always drawn. This is one part of the list. Repeats are few or missing, and single values can be far off.
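Also: primary screen of an FDA-approved drug library in HeLa reporter cells in 96-well format, CellMask signal normalized to DMSO-treated wells set as 1, under 0.5 deemed highly cytotoxic.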

The assay deals with HeLa VPS33A reporter cells. As to the kind of experiment: relative cell viability (CellMask signal) vs DMSO (fraction of DMSO); HeLa model of a glycosaminoglycan (GAG) storage disease; KI is knock-in and KO knock-out; SDC1 is syndecan 1; higher = less cytotoxic. The note with it: 50 µM; 24 h.
With `CCCCCCCCCCCC[N+](C)(C)CCOc1ccccc1` [Domiphen Bromide], the relative cell viability was found to be 0.00555.
Next, `CCCCc1oc2ccc(NS(C)(=O)=O)cc2c1C(=O)c1ccc(OCCCN(CCCC)CCCC)cc1` [Dronedarone HCl]: 0.00431; `CC1=C(/C=C/C(C)=C/C=C/C(C)=C/C=C/C=C(C)/C=C/C=C(C)/C=C/C2=C(C)CCCC2(C)C)C(C)(C)CCC1` [Betacarotene]: 0.00852; `C=C1CC[C@H]2C(=C)CC[C@H]3C(=C)C(=O)O[C@@H]3[C@@H]12` [Dehydrocostus Lactone]: 0.00388.
In the case of `O=C(O)c1ccccc1` [Benzoic Acid] it was 0.403.
In the case of `CC(CN(C)C)CN1c2ccccc2CCc2ccccc21` (stereo not given) [Trimipramine (maleate)] it was 0.0149.
In turn, `COc1cc(Nc2ncc(F)c(Nc3ccc4c(n3)N(COP(=O)(O)O)C(=O)C(C)(C)O4)n2)cc(OC)c1OC` [R788 disodium] returned a relative cell viability of 0.201.
Next, `N=C(N)c1ccc(OCCCCCOc2ccc(C(=N)N)cc2)cc1` [Pentamidine isethionate]: 0.0146; `C=C(NC(=O)C(=C)NC(=O)c1csc(C2=N[C@@H]3c4csc(n4)[C@H]4NC(=O)c5csc(n5)[C@H]([C@](C)(O)[C@@H](C)O)NC(=O)[C@H]5CSC(=N5)/C(=C/C)NC(=O)[C@H]([C@@H](C)O)NC(=O)c5csc(n5)[C@]3(CC2)NC(=O)[C@H](C)NC(=O)C(=C)NC(=O)[C@H](C)NC(=O)[C@H]([C@@H](C)CC)N[C@@H]2C=Cc3c([C@H](C)O)cc(nc3[C@H]2O)C(=O)O[C@@H]4C)n1)C(N)=O` [Thiostrepton]: 0.0194.
Next, `CC(=O)O[C@@]12CO[C@@H]1C[C@H](O)[C@@]1(C)C(=O)[C@H](O)C3=C(C)[C@@H](OC(=O)[C@H](O)[C@@H](NC(=O)OC(C)(C)C)c4ccccc4)C[C@@](O)([C@@H](OC(=O)c4ccccc4)[C@H]21)C3(C)C` [Docetaxel Trihydrate]: 0.0673.
In the case of `NC(=O)c1cccc2cn(-c3ccc([C@@H]4CCCNC4)cc3)nc12` it was 0.00456; in that of `COc1ncc(-c2ccc3nccc(-c4ccnnc4)c3c2)cc1NS(=O)(=O)c1ccc(F)cc1F`, 0.00953.
Turning to `Cc1c(-c2ccccc2)oc2c(C(=O)OCCN3CCCCC3)cccc2c1=O` [Flavoxate hydrochloride], the relative cell viability is 0.068.
Next, `C[C@@H](Oc1cc(-c2cnn(C3CCNCC3)c2)cnc1N)c1c(Cl)ccc(F)c1Cl` [Crizotinib hydrochloride]: 0.00386; `CCCCCCCCOc1ccccc1C(=O)Nc1ccc(C(=O)OCC[N+](C)(CC)CC)cc1` [Otilonium Bromide]: 0.00411.
In the case of `OCc1cc([C@@H](O)CNCCCCCCOCCOCc2c(Cl)cccc2Cl)ccc1O` [Vilanterol trifenatate] it was 0.00953.
In the case of `O=C1c2c(O)ccc(O)c2C(=O)c2c(NCCNCCO)ccc(NCCNCCO)c21` [Mitoxantrone HCl] it was 0.00551; in that of `C=CC[C@@H]1/C=C(\C)C[C@H](C)C[C@H](OC)[C@H]2O[C@@](O)(C(=O)C(=O)N3CCCC[C@H]3C(=O)O[C@H](/C(C)=C/[C@@H]3CC[C@@H](O)[C@H](OC)C3)[C@H](C)[C@@H](O)CC1=O)[C@H](C)C[C@@H]2OC` [Tacrolimus (FK506)], 0.00686; in that of `Cc1ccc([C@@H]2O[C@H](CO)[C@@H](O)[C@H](O)[C@H]2O)cc1Cc1ccc(-c2ccc(F)cc2)s1` [Canagliflozin], 0.0129.
Compound `Cc1ccc(NC(=O)c2ccc(CN3CCN(C)CC3)cc2)cc1Nc1nccc(-c2cccnc2)n1` [Imatinib (STI571)] yielded a relative cell viability of 0.0338.
In the case of `CCCCOc1ccc(C(=O)CCN2CCCCC2)cc1` [Dyclonine HCl] it was 0.0238; in that of `CC(C)C[C@H](NC(=O)[C@@H](NC(=O)c1cccc(-c2ccccc2)n1)[C@@H](C)O)B(O)O`, 0.0115; in that of `OC(c1cc(C(F)(F)F)nc2c(C(F)(F)F)cccc12)C1CCCCN1` (stereo not given) [Mefloquine hydrochloride], 0.00702.
In the case of `Cc1cnc(Nc2ccc(OCCN3CCCC3)cc2)nc1Nc1cccc(S(=O)(=O)NC(C)(C)C)c1` it was 0.00559; in that of `C[C@@H](O)[C@H]1C(=O)N2C(C(=O)OCOC(=O)C(C)(C)C)=C(SC3CN(C4=NCCS4)C3)[C@H](C)[C@H]12` [Tebipenempivoxil], 0.245.
`CCN(CC)CCOC(=O)C1(C2CCCCC2)CCCCC1` [Dicyclomine HCl] registered a relative cell viability of 0.00852.
`CCC1C=C(C)CC(C)CC(OC)C2OC(O)(C(=O)C(=O)N3CCCCC3C(=O)OC(C(C)=CC3CCC(O)C(OC)C3)C(C)C(O)CC1=O)C(C)CC2OC` (stereo not given) [Ascomycin(FK 520)] had a relative cell viability of 0.00688.
Next, `CN1CCN(c2ccc3nc(-c4c(N)c5c(F)cccc5[nH]c4=O)[nH]c3c2)CC1` [Dovitinib (TKI258) Lactate]: 0.00381.
On to `Clc1ccc(CCC(Cn2ccnc2)Sc2c(Cl)cccc2Cl)cc1` (stereo not given) [Butoconazole nitrate], for which the relative cell viability is 0.0038.
In the case of `CCN(CCO)CCCOc1ccc2c(Nc3cc(CC(=O)Nc4cccc(F)c4)[nH]n3)ncnc2c1` [Barasertib (AZD1152-HQPA)] it was 0.0146.
Next, `CC[C@]1(O)C[C@@H]2CN(CCc3c([nH]c4ccccc34)[C@@](C(=O)OC)(c3cc4c(cc3OC)N(C)[C@H]3[C@@](O)(C(=O)OC)[C@H](OC(C)=O)[C@]5(CC)C=CCN6CC[C@]43[C@@H]65)C2)C1` [vinblastine]: 0.258.
With `CCN(CC)CCOc1ccc(C(=C(Cl)c2ccccc2)c2ccccc2)cc1` [Clomiphene citrate], the relative cell viability was 0.0328.
In the case of `CCOC(=O)c1c(CSc2ccccc2)n(C)c2cc(Br)c(O)c(CN(C)C)c12` [Arbidol HCl] it was 0.0205.
In the case of `CC1=C[C@H](O)CC(C)(C)[C@H]1/C=C/C(C)=C/C=C/C(C)=C/C=C/C=C(C)/C=C/C=C(C)/C=C/C1=C(C)C[C@@H](O)CC1(C)C` [Lutein] it was 0.00501.
Next, `CN1CCN(C(c2ccccc2)c2ccc(Cl)cc2)CC1` (stereo not given) [Chlorcyclizine (hydrochloride)]: 0.0559.
`CC(NCCC(c1ccccc1)c1ccccc1)c1ccccc1` (stereo not given) [Fendiline (hydrochloride)] gave a relative cell viability of 0.00775.
Next, `O=S(=O)(c1cccc2cnccc12)N1CCCNCC1` [Fasudil (HA-1077) HCl]: 0.0566.
Next, `O=C(CCCN1CCC(O)(c2ccc(Cl)cc2)CC1)c1ccc(F)cc1` [Haloperidol hydrochloride]: 0.0123; `C/C=C1\NC(=O)[C@H]2CSSCC/C=C/[C@H](CC(=O)N[C@H](C(C)C)C(=O)N2)OC(=O)[C@H](C(C)C)NC1=O` [Romidepsin (FK228, depsipeptide)]: 0.00881.
`CC(C)c1cc(C(=O)N2Cc3ccc(CN4CCN(C)CC4)cc3C2)c(O)cc1O` displayed a relative cell viability of 0.0119.
